Laboratory results as given in PubChem BioAssay AID2451 (National Center for Advancing Translational Sciences (NCATS), 2010).
Values joined by “and” are separate entries in the source; they are usually repeats but may differ in a detail not shown here. Equal entries are not always repeated. About 2,100 (0.72%) of roughly 290,000 compounds were called active. The inconclusive results got no clear call from the source; some entries with a clear call stand among them for comparison. The call rests on the fitted dose curve; in most records, active means well fitted inhibition curve with a large enough effect; inconclusive means small, poorly fitted or top-dose-only effect, or effect the other way; inactive means flat fitted curve, though single readings scatter. Potencies beside an inconclusive call are fits to weak or partial responses and may not hold up.

Each molecule was assayed against Fructose-bisphosphate aldolase (Giardia intestinalis (strain ATCC 50803 / WB clone C6)) (UniProt A8B2U2) (assay: qHTS Assay for Inhibitors of Fructose-1,6-bisphosphate Aldolase from Giardia Lamblia). Settings: purified Giardia FBPA; series mostly up to 59.6 µM.
Outline: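 40 nM FBPA preincubated 10 min at RT with compound (up to 57.5 uM final), then substrate plus GAPDH/TPI/NAD/arsenate coupling and diaphorase/resazurin added. Fluorescence read after 20 min at RT, 525/598 nm.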
Further: nearly all actives have a fitted effect of over 55% in size.
Potency means the concentration at half of the fitted maximal effect; tags describe the fitted curve by direction and shape.

Sequence of UniProt A8B2U2 (A8B2U2 whole entry, looked up): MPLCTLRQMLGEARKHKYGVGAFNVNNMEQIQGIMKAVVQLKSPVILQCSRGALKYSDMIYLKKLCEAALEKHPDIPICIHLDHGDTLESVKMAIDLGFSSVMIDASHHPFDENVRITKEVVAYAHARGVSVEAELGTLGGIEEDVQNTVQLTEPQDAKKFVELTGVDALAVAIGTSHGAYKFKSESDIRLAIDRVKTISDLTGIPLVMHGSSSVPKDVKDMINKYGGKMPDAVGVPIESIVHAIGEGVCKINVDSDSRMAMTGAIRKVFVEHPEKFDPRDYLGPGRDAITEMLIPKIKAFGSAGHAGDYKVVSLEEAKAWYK

SMILES	Potency
CCOc1cc2c(cc1/C=C(/C#N)c1ccc(C(=O)O)cc1)OCO2	inconclusive: 17.7 µM [activator, partial curve]
COc1ccc(NS(=O)(=O)c2cccc(NC(=O)C3=NN(c4ccccc4)C(=O)CC3)c2)cc1	inactive
CC(C)(c1ccccc1)c1ccc(OCCCN2CCNCC2)cc1	inconclusive: 19.9 µM [inhibitor, partial curve]
CCC(CC)N1CCN(C(=O)c2cccc(Cl)c2)CC1	inconclusive: 25.1 µM [inhibitor, partial curve]
O=C(O)c1ccccc1SCc1cn2ccccc2n1	inconclusive: 15.8 µM [inhibitor, single point]
Fc1ccc(C(c2nnnn2C2CCCCC2)N2CCCC2)cc1 (configuration not stated)	inconclusive: 17.7 µM [inhibitor, single point]
Cc1ccc(-c2ccc(/C=C(\C#N)C(N)=S)o2)c([N+](=O)[O-])c1	inconclusive: 1.26 µM [inhibitor, full curve]
CCc1cc(=O)oc2cc(C)cc(OC(C)C(=O)NC(Cc3c[nH]c4ccc(O)cc34)C(=O)O)c12 (configuration not stated)	inactive
O=C(c1ccccc1)n1nnc2ccccc21	inactive
Cc1cc(C)cc(OCCCCn2cncn2)c1	inactive
COc1cc(NC(=O)CSc2nc3ncnc(N)c3[nH]2)c(C(=O)O)cc1OC	active: 11.2 µM
CCN1CCN(C/C(C)=C/c2ccccc2)CC1	inconclusive: 11.2 µM [inhibitor, partial curve]
c1cncc(CNC2CCCCC2)c1	inconclusive: 35.5 µM [inhibitor, single point]
C=CCCCOc1ccc(C(=O)O)cc1	inconclusive: 11.2 µM [activator, partial curve]
COc1cccc(CNCCc2cccc(F)c2)c1OC	inconclusive: 28.2 µM [inhibitor, partial curve]
COc1cc(C(=O)NC2=NCCS2)cc(OC)c1OC	inactive
Cc1ccc2nc(SCC(=O)N/N=C/c3ccco3)cc(C)c2c1	inconclusive: 17.7 µM [inhibitor, single point]
Cc1cccc(Cl)c1OCCN1CCCC1	active: 25.1 µM
CC1CCCCN1C(=S)NC(=O)c1cccs1 (configuration not stated)	inconclusive: 19.9 µM [inhibitor, partial curve]
Nc1ccc(N2CCCCCC2)cc1	active: 11.2 µM
Cc1ccc(SCCSc2nc(C)cc(=O)[nH]2)cc1	inconclusive: 39.8 µM [inhibitor, partial curve]
COc1ccc(Br)cc1CN1CCCCCC1	inconclusive: 22.4 µM [inhibitor, partial curve]
Nn1c(SCC(=O)Nc2ccc3c(c2)OCCO3)nncc1=O	active: 25.1 µM
CC1CCC(C(C)C)C(=O)C1 (configuration not stated)	inactive
Cc1oc2ccc(OS(C)(=O)=O)cc2c1C(=O)OC(C)C	inactive
Cc1c(/C=C/C(=O)c2ccccc2O)cnn1C	inactive

SMILES	Potency
CNc1ccc(Br)cc(C(=O)/C=C/c2cccc(OC)c2)c1=O	inconclusive: 7.92 µM [inhibitor, partial curve]
NC(=O)c1ccccc1OCc1cccc2ccccc12	inactive
COc1ccc(NC2=C3CCCC=C3N(c3ccc(OC)cc3)C2=O)cc1	inconclusive: 15.8 µM [inhibitor, single point]
CSc1n[nH]c(N)c1S(=O)(=O)c1ccc(Cl)cc1	inactive
CCc1nnc(NC(=O)c2ccc(Br)o2)s1	inconclusive: 25.1 µM [inhibitor, partial curve]
O=C(c1cccs1)N1CCc2ccccc2C1	inconclusive: 15.8 µM [inhibitor, partial curve]
COc1cccc(/C=N/NC(=O)CCc2n[nH]c(=O)[nH]c2=O)c1O	inconclusive: 1.58 µM [inhibitor, full curve, poor fit]
COC(=O)c1ccc(N2C(=O)CC(N3CCC(O)(c4ccc(Br)cc4)CC3)C2=O)cc1 (configuration not stated)	inconclusive: 35.4 µM [inhibitor, single point]
CCOc1cc(C(=O)NCc2ccco2)cc(OCC)c1OCC	inactive
Cc1ccc(CN2CCC(CO)(CC3CCCCO3)CC2)o1 (configuration not stated)	inactive
Cc1cc(C)n(-c2ccc(Cl)c(C(=O)O)n2)n1	active: 15.8 µM
O=S1(=O)N=C(N/N=C/c2ccco2)c2ccccc21	inconclusive: 4.46 µM [inhibitor, full curve, poor fit]
O=S(=O)(Nc1cc(O)cc2cccnc12)c1ccc(Cl)s1	active: 3.15 µM
COC(=O)c1scc(C)c1S(=O)(=O)Nc1ccc(C)cc1	inconclusive: 15.8 µM [inhibitor, single point]
COc1ccc(-c2nnc(NC(=O)c3ccc(S(=O)(=O)N4CCc5ccccc5C4)cc3)o2)cc1	inconclusive: 17.7 µM [activator, partial curve]
C=CCSc1nc2c(sc3nc(C)cc(C)c32)c(=O)[nH]1	inconclusive: 17.7 µM [inhibitor, single point]
COc1ccc(CCN(C)C(=O)C2CCN(Cc3ccccc3)CC2)cc1OC	inconclusive: 22.3 µM [inhibitor, partial curve]
O=C(Nc1ccc(N2CCCCC2)c(C(=O)O)c1)c1ccco1	inactive
O=C(Cc1ccc(Cl)cc1)Nc1ccc(Br)cc1	inactive
CCCCCCCCCCCCCCCCn1cc[n+](CC(C)=O)c1	inactive
COc1ccc(Cc2nc3ccc(C(=O)N(C)CCc4cnn(C)c4)cc3o2)cc1OC	inactive
CCc1ccc(-n2nc3cc(C)c(N)cc3n2)cc1	inconclusive: 28.2 µM [inhibitor, partial curve]
O=C(CNCCC1=CCCCC1)Nc1ccc(N2CCCCCC2)cc1	inconclusive: 17.7 µM [inhibitor, single point]
CC1CCN(S(=O)(=O)c2ccc(C(=O)Nc3nnc(C4CC4)o3)cc2)CC1	inconclusive: 35.5 µM [inhibitor, single point]
CC1CC(C)CN(CC(=O)N2CCOCC2)C1 (configuration not stated)	inconclusive: 19.9 µM [inhibitor, partial curve]
Cc1c(O)c(=O)ccn1C	inconclusive: 4.46 µM [inhibitor, full curve, poor fit] and inconclusive: 7.92 µM [inhibitor, partial curve]
